First the molecules themselves.
B1: 156510679_156513964_2510_CDS_ENSG00000183856_ENST00000361170|human|control|control (ssRNA)
RNA: GGGAGUUCUACAGUCCGACGAUCCACACUGAGAGGAGGGUGGGGUGCAUGCACUAAUAUCCUGUAGUCAUCUUGGGCUUUCCUGGCUCGGAAAAAUGCCUGGAUCUUCACAAUGGAGUUAACAUUCUUCUGGAAGUAGUGCAGCAACAGAGGAUUGAGCAUCA
B2: chr18:25532265:25532266:-_ENSG00000170558_ENST00000399380|hu_mus|FALSE|FALSE (ssRNA)
RNA: GGGAGUUCUACAGUCCGACGAUCGGAGUUGAGGGAGCUCAAGGAGCCAGCCGUGGAGCCGCUGCCCUCGUAGUCAAAGACUAAGAGGGAGUCAUACGGUGGCGCCGUGGGGUCGUUGUCAGCAGCUUUAAGGCCCUCAUUAAUCAACAGAGGAUUGAGCAUCA
B3: chr7:148083511:148083512:+_ENSMUSG00000025487_ENSMUST00000026560|mus_hu|motif|central (ssRNA)
RNA: GGGAGUUCUACAGUCCGACGAUCAAAUCCAACACUCGGGGCUGCACCCAGGUCAUGUGGACUCGUUUGUCCACCUCGUCGGUACUGCCUUUCACCAGCCCCACCGAAAGGGCCUUCAUCACCAGAAGCUCCACCUCAUUCACUCAACAGAGGAUUGAGCAUCA
B4: chr2:47387936:47387937:-_ENSG00000143933_ENST00000272298|hu_hu|FALSE|FALSE (ssRNA)
RNA: GGGAGUUCUACAGUCCGACGAUCUACAAGAAAUUUAACACAUUCUGUACAAGGUCUUCACUUUGCUGUCAUCAUUUGUACAAACUCUUCAUAGUUUACUUGACCAUCACCAUCAAUAUCUGCUUCCCUGAUCAUUUCAUCAACCAACAGAGGAUUGAGCAUCA
B5: 53569886_53570006_2966_CDS_ENSG00000023287_ENST00000025008|human|control|control (ssRNA)
RNA: GGGAGUUCUACAGUCCGACGAUCUGAGAAGUCACACUGUUCUUUUUGUACAAAUGUUCUAAAGUGGCAAAGGUCUUCCUUAAUGGUUUGUAUACUGAAGUGAGAGUCUUGGGCAACAACUCUACAUCUUUCCAACUGGACAUUCAACAGAGGAUUGAGCAUCA
B6: chr5:4083222:4083223:-_ENSMUSG00000001467_ENSMUST00000001507|perfect_dup|FALSE|FALSE (ssRNA)
RNA: GGGAGUUCUACAGUCCGACGAUCGGUGUGAAUCAUAGUUGUAUAAUUCACAGUGGGAAAGUAUCCAUCAAUGAGAUCAAAUUCAUAUAAACGAAGCAUAGUGGACCAAAUUGUCUUAAUUUGAACAUAGGCAAAAUUUUCCCCCAACAGAGGAUUGAGCAUCA
B7: chr18:33688888:33688889:-_ENSG00000141424_ENST00000269187|hu_mus|FALSE|FALSE (ssRNA)
RNA: GGGAGUUCUACAGUCCGACGAUCAAGUGACACAUUGCUUGGAUUAACAUAUUUACAUUUCUCUAUCAUACAGAUGUACAAGCAGAUGAAGUGUAUCAGAGUGUUCACUUGUUUCACAGGAACAUAACAAUUUGACAGAUGUCCCAACAGAGGAUUGAGCAUCA
B8: chr4:73765705:73765706:+_ENSMUSG00000049122_ENSMUST00000084474|mus_mus|FALSE|FALSE (ssRNA)
RNA: GGGAGUUCUACAGUCCGACGAUCGUACCUUGUGAGCUCUUCUUUAAUCUUCAAGGGUUCAUGUGGGUAGAAUUUCACUCUAAAGCACAUGGUGUAUGGUGGAUGAGAUUUCAUUUGCUUGAAGAUGGACUUGUUAGGCUCAAGCAACAGAGGAUUGAGCAUCA
B9: chr11:77336104:77336105:-_ENSG00000074201_ENST00000525064|hu_mus|hu_hu_hu_mus_False|78_108 (ssRNA)
RNA: GGGAGUUCUACAGUCCGACGAUCCUCGCACAUUGCAGUGAACAUCGCCUCCAAUGCUGAUUUAUCACUGGGCACAAAUCGAAAUUCAGAAAUGGGUUCAACAUCAUCAUUGUCUUCCUCAUCUUCAUCAGAGAGAGGUUCUUUCAACAGAGGAUUGAGCAUCA
B10: 39935774_39937205_266_3pUTR_ENSG00000183337_ENST00000397354|human|control|control (ssRNA)
RNA: GGGAGUUCUACAGUCCGACGAUCCAAGGAUUUUCCUGUCUUCGCUCGCCCCACACAUGCGGACCCUCUCGCUGUUCAUCCAGCUGUGAACGUUCCCAUACAGGGGGGUUGCUGAGAGCAUGUCGUCUUCUGGGAUGGCAGCUUCAACAGAGGAUUGAGCAUCA
B11: chr2:217001844:217001845:+_ENSG00000079246_ENST00000392132|hu_hu|hu_hu_hu_mus_False|38_108 (ssRNA)
RNA: GGGAGUUCUACAGUCCGACGAUCACCGACUUGAGGAUUAGAUCUUUUGUCAUAAGCAUAUCGGACGAUGGCGACCAUGUUUAACUCAUCCAAAGCAUGAAUCAGGGAGGAAAGGGCAACAGCUGCCGCCUCAUCAUCCUUUGCCAACAGAGGAUUGAGCAUCA
B12: 18507128_18507248_137_5pUTR_ENSG00000243156_ENST00000441493|human|control|control (ssRNA)
RNA: GGGAGUUCUACAGUCCGACGAUCGUGCCGCCGUGGCUGCUCGCACAACCCCUGCAGCUGCGAUCCCGCCCAGUUAGCCUCGGGGGCUGCACAGCCCAGCCCCCUCGCCCAGGGCCCAGGGGUUCUCAGGCCGCGCGGCGAGGACAACAGAGGAUUGAGCAUCA
B13: chrX:140365796:140365797:-_ENSMUSG00000031285_ENSMUST00000033642|mus_mus|mus_mus_mus_hu_False|18_58 (ssRNA)
RNA: GGGAGUUCUACAGUCCGACGAUCCUUCUCAUUACUCAGUGCCUGCAAGGUUCUGGUUCGGUAGAAGCUACAGUGGGCACUAUGAGUGGGGCUAGGCAACCCAUUCAUCCGGGAGCCUCUCAUAUUUCUGGAUGUCUUAUCUCUCAACAGAGGAUUGAGCAUCA
B14: chr7:19736620:19736621:-_ENSG00000105849_ENST00000222567|hu_hu|motif|central (ssRNA)
RNA: GGGAGUUCUACAGUCCGACGAUCCAUUGUCUAGCACAUCUACUUGUAGACAAUUGUGAACAUCUGCCACUCUGCCAAUUCGGUAUCCCAUCAUUGUAAGUUCAGAUCAACAUAUACCACUAGCAGAAUUUAUUCAUUACCAAACAACAGAGGAUUGAGCAUCA
B15: chr1:63223742:63223743:+_ENSMUSG00000025967_ENSMUST00000135877|mus_hu|FALSE|FALSE (ssRNA)
RNA: GGGAGUUCUACAGUCCGACGAUCUCUCCGAAACCCAUGGUGUCGGCUGUAUCCGAGAGCUGGGGAGCAGCAGAAAGAGAGCGCGCAAAUUGUGGGCGCCCCACGCUCCACGGCUCCCGAAGAUGACGGGAACCAGCCCUAGAACAACAGAGGAUUGAGCAUCA
B16: 46067823_46067943_205_3pUTR_ENSG00000130638_ENST00000252934|human|control|control (ssRNA)
RNA: GGGAGUUCUACAGUCCGACGAUCCUUGCCGCUCACAGCUGGGUCGAGCCUGACGAGGAGGAGGAAGGCGAGGAGGACGAAGGGGGAGGAUGACGAGGAGGGAGGAGUAGGAUGGCGAGGAGGAAGGGGGAGGCCUCGCCCUACCAACAGAGGAUUGAGCAUCA
B17: chr17:64801638:64801639:+_ENSG00000154229_ENST00000413366|hu_mus|hu_hu_hu_mus_False|8_98 (ssRNA)
RNA: GGGAGUUCUACAGUCCGACGAUCUAUAUAUAUAUAUAUAUACACACACAUAUAUAGUAAAACCCUAGUUAAACGUGUAAAGUAGCCAUUCAUUUUUAAAAUUACAUCUACAUUAAAAAAUUAAUAUAUCUGAUACAGUGCCAGCAACAGAGGAUUGAGCAUCA
B18: 54708344_54714423_936_CDS_ENSG00000047249_ENST00000359530|human|control|control (ssRNA)
RNA: GGGAGUUCUACAGUCCGACGAUCAAUCAUUUGAUACUGGAGCUGAAAGCCACACUUGUUACUCAACACUCCCAUUAUGCAAUUUACCCCAUCUGCUUCCACCCAAGCAAAGCGGUACUCAUUGACCCGGAGCAUCAGCUGCAACAACAGAGGAUUGAGCAUCA
B19: chr15:38448799:38448800:-_ENSMUSG00000037458_ENSMUST00000152833|mus_mus|FALSE|FALSE (ssRNA)
RNA: GGGAGUUCUACAGUCCGACGAUCAGCAGAAAUACCCAAGGCGGCCUGGGCCAUAGGCUGCGGGGACGACGUGGGGGAAACGCGCGGCACCGACACCAGCUGAGCAGCAGUGGCGGCGGCAGCCGAACUGGAGAAAUGGAGCGGCAACAGAGGAUUGAGCAUCA
B20: chr1:46159212:46159213:+_ENSG00000159596_ENST00000372025|hu_mus|hu_hu_hu_mus_True|28_38 (ssRNA)
RNA: GGGAGUUCUACAGUCCGACGAUCUCUGAUCCCUCCCAAGAAAGCUAGGAAACCGGCUCCAUAAGCCAUCUGAGUGAAAGCUAGGACGGGGAUAUAAGUUUUUGUCAUCAGCAUGACAAGUGGGGGAGCAGUAAAGGGGAUUAACAACAGAGGAUUGAGCAUCA
B21: chr3:145257603:145257604:+_ENSMUSG00000074182_ENSMUST00000098534|mus_mus|motif|central (ssRNA)
RNA: GGGAGUUCUACAGUCCGACGAUCAUCGAUGUAAGGCUUUAGAAUUUCAUUAAUAGUUUUAUCAUCUGGUACUCUUUUUUCGGUGUACUCUGCUUGACUCUGAGGAAACUGGAGCUUGACAUGCCAACAAAACUGCUGCUUCCUCAACAGAGGAUUGAGCAUCA
B22: chr4:115894766:115894767:+_ENSMUSG00000028698_ENSMUST00000030464|mus_hu|mus_mus_mus_hu_True|28_78 (ssRNA)
RNA: GGGAGUUCUACAGUCCGACGAUCUUCCACACGGAAAUGUACUUCGGGUUUUCCAACGCCAGUACAAAGUCCGGCCAAACUACCCGAACAGGGUCCUCCCCCUCUCUUCUCUCCUCCACAACAAAAUGCCCCCGAACUUUCAAGCAACAGAGGAUUGAGCAUCA

The other results are listed elsewhere or left out.

In the experiment the target is T1, UNK ZnF1-3 (human, UniProt Q9C0B0 31-174).
T1 sequence: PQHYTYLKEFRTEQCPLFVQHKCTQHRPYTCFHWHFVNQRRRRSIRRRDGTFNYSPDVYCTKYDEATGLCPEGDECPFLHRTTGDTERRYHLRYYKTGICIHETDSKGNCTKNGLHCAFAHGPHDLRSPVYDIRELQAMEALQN
Description: nsRBNS (natural sequence RNA bind-n-seq); RBNS binding buffer (assumed for nsRBNS): 25 mM Tris pH 7.5, 150 mM KCl, 3 mM MgCl2, 0.01% Triton X-100, 500 ug/ml BSA, 20 U/ml SUPERase-In, 4 C; UNK is unkempt and MSI1 is Musashi-1; names of the RNAs are library labels; protein concentration not given here; high values mean tight binding.
B1 showed a binding signal of 1.2 enrichment R.

Consider B2, for which the binding signal was determined as 1.27 enrichment R.

B3 had a binding signal of 0.559 enrichment R.

Consider B4, for which the binding signal stood at 0.957 enrichment R.

Regarding B5, the binding signal worked out at 1.05 enrichment R.

The molecule B6 displayed a binding signal of 0.915 enrichment R.

In turn, B7 gave a binding signal of 0.705 enrichment R.

Turning to B8, the binding signal was determined as 0.763 enrichment R.

The molecule B9 came in with a binding signal of 0.839 enrichment R.

As for B10, the binding signal was determined as 0.552 enrichment R.

For the molecule B11, the binding signal came out at 1.49 enrichment R.

As to B12, the binding signal amounted to 0.829 enrichment R.

Molecule B13 displayed a binding signal of 0.628 enrichment R.

The molecule B14 displayed a binding signal of 1.22 enrichment R.

As to B15, the binding signal was determined as 0.804 enrichment R.

In the case of B16, the binding signal turned out to be 1.98 enrichment R.

For B17, the binding signal was 2.7 enrichment R.

With B18, the binding signal came out at 0.936 enrichment R.

Molecule B19 displayed a binding signal of 1.78 enrichment R.

In turn, B20 returned a binding signal of 1.2 enrichment R.

The molecule B21 yielded a binding signal of 0.776 enrichment R.

As for B22, the binding signal was 1.04 enrichment R.

Values taken from publication PMC12136788.
